Among the data in the supplement of paper PMC9446081 are relative growth values, retold here.

Out of some 39,000 compounds screened, about 220 (0.56%) showed activity. Some of the results follow.
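Also: static incubation at 37 °C against the wild-type strain, values averaged over two biological replicates.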

The assay deals with Escherichia coli K-12 BW25113. The assay is described as follows: relative growth (OD600 normalised to plate interquartile mean) (fraction); higher = less growth inhibition, active = 0.2 or less. As to conditions: 50 µM; LB; incubation time: overnight (16-24 h).
Take `C[C@@H]1CN([C@@H](C)CO)C(=O)c2cc(NC(=O)CCN3CCOCC3)ccc2O[C@@H]1CN(C)S(C)(=O)=O`: the relative growth is inactive: 0.992.

Turning to `COc1ccc2c3c(n(c2c1)C)[C@H](CO)N(C[C@]13CCN(CC1)S(=O)(=O)c1cn(cn1)C)C(=O)Nc1ccc(cc1)F`, the relative growth was inactive: 1.01.

As for `Cc1ccc2cc(-c3c(C)ccc(C(=O)c4c(-c5ccccc5)n(C)n(-c5ccccc5)c4=O)c3N)ccc2n1`, the relative growth was inactive: 1.03.

As to `C[C@H](CO)N1C[C@H](C)[C@H](CN(C)S(=O)(=O)c2cn(C)cn2)Oc2ccc(NC(=O)Cc3ccccc3)cc2CC1=O`, the relative growth was inactive: 0.981.

For `COc1cc(C)c(C(=O)Oc2cc(C)c(C(=O)O)c(O)c2C)c(OC)c1C`, the relative growth was inactive: 1.06.

As to `Cc1noc(C)c1NC(=O)Nc1ccc2c(c1)C(=O)N([C@@H](C)CO)C[C@@H](C)[C@H](CN(C)C(=O)c1ccccc1)OCCCC[C@H](C)O2`, the relative growth is inactive: 0.986.

Regarding `COc1ccc(CN(C)C[C@H]2OCCCC[C@@H](C)Oc3ccc(NS(=O)(=O)c4c(C)noc4C)cc3C(=O)N([C@@H](C)CO)C[C@@H]2C)cc1`, the relative growth is inactive: 1.03.

As for `CC1=NC[C@H](O)[C@@H](C(=O)O)N1`, the relative growth is inactive: 1.

As to `CCCCCC(=O)OC1(C(C)=O)CCC2C3CCC4=CC(=O)CCC4(C)C3CCC21C` (stereo not drawn), the relative growth was inactive: 1.07.

Consider `C[C@@H]1CN([C@@H](C)CO)C(=O)c2cc(NC(=O)NC3CCCCC3)ccc2O[C@@H](C)CCCCO[C@H]1CN(C)C(=O)C1CCCCC1`, for which the relative growth was inactive: 1.04.

Turning to `C[C@@H]1CN([C@@H](C)CO)C(=O)c2cc(/C=C/c3ccccc3)cnc2O[C@@H]1CN(C)C(=O)Nc1ccc(C(F)(F)F)cc1`, the relative growth is inactive: 1.03.

`NCc1cccc(Cn2cccn2)c1`: the relative growth is inactive: 0.964.

Take `CC(C)NNC(=O)c1ccncc1.O=P(O)(O)O`: the relative growth is inactive: 1.01.

As to `CNC[C@H]1OCCCC[C@@H](C)Oc2ccc(NS(=O)(=O)c3c(C)noc3C)cc2C(=O)N([C@H](C)CO)C[C@@H]1C`, the relative growth was inactive: 1.01.

On to `COc1ccc(S(=O)(=O)Nc2ccc3c(c2)C(=O)N([C@H](C)CO)C[C@@H](C)[C@@H](CN(C)Cc2ccc(C(=O)O)cc2)OCCCC[C@H](C)O3)cc1`, for which the relative growth was inactive: 0.988.

On to `C[C@@H]1CN([C@H](C)CO)C(=O)c2cc(NC(=O)Nc3ccccc3)ccc2O[C@@H]1CN(C)Cc1ccc(C(F)(F)F)cc1`, for which the relative growth is inactive: 0.876.

On to `Cc1ccc2nc([C@H](N)C(C)C)[nH]c2c1`, for which the relative growth was inactive: 1.

Take `CC(C)NC(=O)Nc1ccc2c(c1)C(=O)N([C@H](C)CO)C[C@H](C)[C@@H](CN(C)CC1CCCCC1)OCCCC[C@@H](C)O2`: the relative growth is inactive: 0.975.
